Measurements reported in PubChem BioAssay AID1345083 (National Center for Advancing Translational Sciences (NCATS), 2018).
The whole screen tested about 94,000 compounds, of which about 6,200 (6.6%) were called active. Inconclusive means that the source gave no clear call. Such entries were picked first, then a sample of the others. The call rests on the fitted dose curve; in most records, active means well fitted inhibition curve with a large enough effect; inconclusive means small, poorly fitted or top-dose-only effect; inactive means flat fitted curve, though single readings scatter. Potencies beside an inconclusive call are fits to weak or partial responses and may not hold up.

Experiment: Cytotoxic Profiling in HEK 293 Cell Line of Diverse Libraries Using Quantitative High-Throughput Screening; further: nearly all actives have a fitted effect of over 60% in size
Settings: HEK 293 viability, ATP luminescence (CellTiter-Glo), 48-72 h; activity change, negative = cytotoxicity: at 115 µM (top of the series) unless noted; series mostly up to 115 µM
Outline: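 Cytotoxicity was scored by loss of ATP-coupled luminescence (CellTiter-Glo) in HEK 293 cells. Compound treatment ran 48 or 72 hr at 37 degree Celsius, 5% CO2, 95% humidity.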
On the % scale 0 is the no-effect control and ±100 the full control effect; potency means the concentration at half of the fitted maximal effect; tags describe the fitted curve by direction and shape.

SMILES	Potency	activity change, negative = cytotoxicity
COc1cccc(-c2cc(C(=O)N3CCC(c4ccccc4)CC3)c3cnn(C)c3n2)c1	active: 35.5 µM	–
Cc1ccsc1CN(Cc1cn(-c2ccccc2)nn1)C1CC1	inconclusive: 56.2 µM [inhibitor, partial curve, poor fit]	–
Cc1ccc2c(c1)c(C(=O)N1CCC3(CCNC(=O)CC3)CC1)nn2C	inconclusive: 39.8 µM [inhibitor, single point]	–
CCOCCCNC(=O)c1cc(-c2ccccc2C(F)(F)F)nc2c1cnn2C	–	inactive: -10.7%
CC(=O)NC1(C)CCCN(Cc2cc(-c3cccc(N(C)C)c3)cs2)C1 (configuration not stated)	active: 63.1 µM	–
Cc1ncoc1C(=O)NCC1Cn2cccc2CN1Cc1ccccc1 (configuration not stated)	inconclusive: 3.16 µM [inhibitor, full curve, poor fit]	–
COc1cccc(-c2nc(NCc3cccnc3)ncc2C(=O)O)c1	inconclusive: 89.1 µM [inhibitor, single point]	–
CCn1nc(C)c(-c2cc(C(=O)NCC34CCC=C3N(C)C(=O)CC4)no2)c1C (configuration not stated)	inconclusive: 89.1 µM [inhibitor, partial curve, poor fit]	–
COc1ccc(Cn2c(=O)c(C(=O)NCc3ccccc3)nc3cccnc32)cc1	inconclusive: 50.1 µM [inhibitor, partial curve, poor fit]	–
O=c1cc(N2CCOCC2)oc2c(-c3ccncc3)nccc12	inconclusive: 100 µM [inhibitor, partial curve, poor fit]	–
O=C(Cc1ccc(Cl)cc1)N1C[C@@H](CO)[C@H](c2ccccn2)C1	inconclusive: 14.1 µM [inhibitor, partial curve, poor fit]	–
O=C(Nc1cccc(-n2cccn2)c1)C1CCCN1S(=O)(=O)c1cccs1 (configuration not stated)	inconclusive: 89.1 µM [inhibitor, single point]	–
COC(=O)N[C@@H]1C[C@H]2C[C@@H](C(C)C)OC[C@@]2(c2ccccc2)C1	inconclusive: 50.1 µM [inhibitor, partial curve, poor fit]	–
O=C(c1ccco1)N1CCC(c2n[nH]c(=O)n2-c2ccccc2)CC1	–	inactive: 5.93%
O=C(NCCOc1ccccc1)c1cnc2n1CCN(Cc1ccncc1Cl)CC2	inconclusive: 100 µM [inhibitor, partial curve, poor fit]	–
COC(=O)c1ccc(CN2C(=O)[C@@H]3C[C@@H](O)CN3C3(CN(Cc4ccc(F)cc4)C3)C2=O)cc1	–	inactive: -1.13%
COC[C@@H]1CN(C(=O)Cc2cccc(OC)c2)C[C@H]1c1ccccn1	inconclusive: 44.7 µM [inhibitor, partial curve, poor fit]	–
